Assay results: the supplement of paper PMC7125110
± gives the standard error. Variants at the floor of the assay are shown more often than the library holds them.

B1: glmS ribozyme (parent)
chain: AUAAAAGCGCCAGAACUACAGAAAUGUAGUUGACGAGGAGGAGGUUUAUCGAAUUUUCGGCGGAUGCCUCCAAA

What was measured:
Details in all cases: with glucosamine-6-phosphate
glucosamine-6-phosphate [1] = variants of: B1; experiment: self-cleavage kobs at 40 uM GlcN6P; higher = faster cleavage; RNA array
In short: (§1)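 Over ~14 h at 37 °C, tiles were imaged as glucosamine-6-phosphate (40 μM to 10 mM) in HEPES/KCl/Mg(OAc)2 buffer flowed across sequenced MiSeq chips. The chips carried barcoded ribozyme variants transcribed in situ by E. coli RNA polymerase and tracked with a hybridised Cy3 probe. After normalisation to baseline and to non-cleaving reference variants, one- or two-exponential decay fits of per-tile medians gave kobs. kcat and KM followed from weighted Michaelis–Menten fits across concentrations.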

glucosamine-6-phosphate [2] = variants of: B1; experiment: self-cleavage kobs at 640 uM GlcN6P; higher = faster cleavage; RNA array
In short: as §1

glucosamine-6-phosphate [3] = variants of: B1; experiment: self-cleavage kobs at 2500 uM GlcN6P; higher = faster cleavage; RNA array
In short: as §1

glucosamine-6-phosphate [4] = variants of: B1; experiment: self-cleavage kobs at 10000 uM GlcN6P; higher = faster cleavage; RNA array
In short: as §1

glucosamine-6-phosphate [5] = variants of: B1; experiment: self-cleavage kobs at 160 uM GlcN6P; higher = faster cleavage; RNA array
In short: as §1

Row | Variant | self-cleavage kobs at 40 uM GlcN6P (glucosamine-6-phosphate [1]) [s⁻¹] | self-cleavage kobs at 640 uM GlcN6P (glucosamine-6-phosphate [2]) [s⁻¹] | self-cleavage kobs at 2500 uM GlcN6P (glucosamine-6-phosphate [3]) [s⁻¹] | self-cleavage kobs at 10000 uM GlcN6P (glucosamine-6-phosphate [4]) [s⁻¹] | self-cleavage kobs at 160 uM GlcN6P (glucosamine-6-phosphate [5]) [s⁻¹]
1 | A12U G44C U65A | < 1e-05 | – | – | – | –
2 | A12U G63U | < 1e-05 | < 1e-05 | < 1e-05 | – | –
3 | A12U U31A G37U C71A | < 1e-05 | – | – | < 1e-05 | –
4 | A12U U49C U57A G62U | < 1e-05 | – | – | < 1e-05 | –
5 | G13A A36G | < 1e-05 | < 1e-05 | < 1e-05 | < 1e-05 | < 1e-05
6 | G13A A36U | < 1e-05 | < 1e-05 | < 1e-05 | < 1e-05 | < 1e-05
7 | G13A A48C | < 1e-05 | < 1e-05 | – | – | –
8 | G13A C16U A64U | < 1e-05 | < 1e-05 | – | – | –
9 | G13A C50A U69G | 4.48e-05 ± 2.2e-05 | – | – | – | –
10 | G13A C68A | < 1e-05 | – | – | – | –
11 | G13A G29A G44U C68U | < 1e-05 | < 1e-05 | – | – | –
12 | G13A G29C | < 1e-05 | – | – | – | –
13 | G13A G35U A36C | < 1e-05 | – | – | – | –
14 | G13A G43C | < 1e-05 | < 1e-05 | – | – | < 1e-05
15 | G13A G66U | < 1e-05 | – | – | – | –
16 | G13A U57C | < 1e-05 | – | – | – | –
17 | G13C A14U G60U | < 1e-05 | – | – | < 1e-05 | –
18 | G13C A15C G40C G41U A52U | < 1e-05 | – | – | – | –
19 | G13C A33C U55C U69G | < 1e-05 | < 1e-05 | < 1e-05 | < 1e-05 | –

Row | Variant | self-cleavage kobs at 40 uM GlcN6P (glucosamine-6-phosphate [1]) [s⁻¹] | self-cleavage kobs at 640 uM GlcN6P (glucosamine-6-phosphate [2]) [s⁻¹] | self-cleavage kobs at 2500 uM GlcN6P (glucosamine-6-phosphate [3]) [s⁻¹] | self-cleavage kobs at 10000 uM GlcN6P (glucosamine-6-phosphate [4]) [s⁻¹] | self-cleavage kobs at 160 uM GlcN6P (glucosamine-6-phosphate [5]) [s⁻¹]
20 | G13C A33U | < 1e-05 | < 1e-05 | – | < 1e-05 | < 1e-05
21 | G13C A36C | < 1e-05 | – | – | < 1e-05 | –
22 | G13C A39C | < 1e-05 | < 1e-05 | – | – | < 1e-05
23 | G13C C34G | < 1e-05 | < 1e-05 | < 1e-05 | < 1e-05 | < 1e-05
24 | G13C C67U | < 1e-05 | – | – | – | < 1e-05
25 | G13C C71A | < 1e-05 | – | – | – | –
26 | G13C G32C U57G C70G | 7.16e-05 ± 2.4e-05 | – | – | – | –
27 | G13C G40A | < 1e-05 | – | – | – | –
28 | G13C G66A | < 1e-05 | – | – | – | –
29 | G13C U46A | < 1e-05 | < 1e-05 | – | – | < 1e-05
30 | G13C U49A | < 1e-05 | – | – | < 1e-05 | –
31 | G13C U49G G60U C70G | < 1e-05 | – | – | – | –
32 | G13U A36G | < 1e-05 | < 1e-05 | < 1e-05 | < 1e-05 | < 1e-05
33 | G13U A42G G60U A64U C71U | < 1e-05 | – | – | – | –
34 | G13U A53G | 2.14e-05 ± 9.7e-06 | 0.00029 ± 3.4e-05 | – | – | 8.17e-05 ± 1e-05
35 | G13U A53G G62A | < 1e-05 | – | – | – | –
36 | G13U C16A C50U | < 1e-05 | – | – | < 1e-05 | –
37 | G13U C34A U49A U65C | < 1e-05 | – | – | < 1e-05 | –
38 | G13U G29A G44U U55G | < 1e-05 | – | – | < 1e-05 | –

Row | Variant | self-cleavage kobs at 40 uM GlcN6P (glucosamine-6-phosphate [1]) [s⁻¹] | self-cleavage kobs at 640 uM GlcN6P (glucosamine-6-phosphate [2]) [s⁻¹] | self-cleavage kobs at 2500 uM GlcN6P (glucosamine-6-phosphate [3]) [s⁻¹] | self-cleavage kobs at 10000 uM GlcN6P (glucosamine-6-phosphate [4]) [s⁻¹] | self-cleavage kobs at 160 uM GlcN6P (glucosamine-6-phosphate [5]) [s⁻¹]
39 | G13U G29C G43C | < 1e-05 | < 1e-05 | – | – | –
40 | G13U G29U A39C G59C | < 1e-05 | – | – | – | –
41 | G13U G29U A52G C67G | 6.42e-05 ± 1.9e-05 | – | – | 8.86e-05 ± 1.8e-05 | –
42 | G13U G32A C50U | < 1e-05 | – | < 1e-05 | – | –
43 | G13U G38C C71A | < 1e-05 | – | – | – | –
44 | G13U G44A | < 1e-05 | – | < 1e-05 | – | < 1e-05
45 | G13U G63U | < 1e-05 | – | – | – | –
46 | G13U G63U C71G | < 1e-05 | – | – | – | –
47 | G13U G66C | < 1e-05 | – | – | – | –
48 | G13U U30A A53G | < 1e-05 | – | – | – | < 1e-05
49 | G13U U31C A33C A48C A52C U56G | < 1e-05 | – | – | – | –
50 | G13U U47G C67U | < 1e-05 | – | – | – | –
51 | G13U U49C | < 1e-05 | < 1e-05 | < 1e-05 | < 1e-05 | –
52 | A14C A15C | 4.27e-05 ± 6.9e-06 | – | – | – | –
53 | A14C A33G G62C | < 1e-05 | – | – | < 1e-05 | –
54 | A14C C16A G35A U45C A48G A52U | < 1e-05 | < 1e-05 | < 1e-05 | – | –
55 | A14C C16U A36G U47G | < 1e-05 | – | – | < 1e-05 | –
56 | A14C C70U | 0.000159 ± 1.4e-05 | 0.000897 ± 9.5e-05 | 0.00439 ± 0.0007 | 0.00953 ± 0.0013 | 0.000308 ± 3.9e-05
